The full ranking holds about 33,000 sequences; the median of “E-score (-0.5 to 0.5)” is about -0.04, and the highest 2% start at about 0.36. The list shows a part of the results.
Target: T1, Hmlalpha2 (UniProt P0CY09)
T1 sequence: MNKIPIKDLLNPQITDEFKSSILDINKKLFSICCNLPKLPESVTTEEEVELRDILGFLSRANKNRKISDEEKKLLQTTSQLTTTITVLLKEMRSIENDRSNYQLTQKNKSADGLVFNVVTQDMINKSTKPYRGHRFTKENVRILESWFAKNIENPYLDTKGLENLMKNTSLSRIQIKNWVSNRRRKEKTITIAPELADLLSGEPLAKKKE
Assay: PBM E-score (8-mer binding enrichment) (E-score (-0.5 to 0.5)); higher = stronger / more preferred TF binding; most listed sequences are background and not binding sites
Conditions: protein concentration: 200 nM; construct: GST-full length
Procedure, shortened: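 Yeast transcription factors carrying a GST tag, as full-length proteins or DNA-binding domains, were produced by PURExpress in vitro transcription/translation. About 100-200 nM protein was applied to universal all-10-mer Agilent arrays, double-stranded by primer extension on fresh or once-stripped slides. Bound protein was detected with fluorescent anti-GST, and scans were normalised with masliner. The Universal PBM Analysis Suite gave each ungapped eight-base word, pooled with its reverse complement, an E-score, a modified Wilcoxon-Mann-Whitney statistic.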

Sequence | PBM E-score
AGAGGGAA | -0.22
CCGCAACC | -0.136
CCGGAATC | -0.353
CGGGGCAC | -0.0886
CTACGGCC | -0.335
CGTTCCCC | -0.0404
TGAATGCA | 0.0743
GGTAACGA | -0.0795
ACGTATGA | 0.28
ACGATTTA | 0.244
GGAATCCA | -0.283
AATATCAT | 0.139
AATCCTAA | -0.111
TCCACAAA | -0.0439
ACTCAACT | 0.097
GATTTTCA | 0.0811
AGGGGTAG | -0.248
AGACAGTA | 0.0949
GAAAGCTA | -0.195
AACGTCTG | -0.038
ACCCTACA | 0.144
CATTCGAC | 0.0595
CCGCAGGC | 0.00351
CCTAGTGC | -0.0708
AATTGGGC | 0.0427

Sequence | PBM E-score
AAGCAGAA | -0.0442
ACCCCTCC | -0.287
AAGCCACT | -0.218
AAGGAGAT | -0.222
CTAGCAAA | 0.0206
ACGAGACT | 0.0617
ATTAGGGG | -0.211
CGCCCCCA | -0.346
ATAGCATA | 0.193
GCTACTAA | 0.124
AACGCGGA | 0.246
GGAGCCAA | -0.293
GCCGGGGA | -0.319
ACCCGAAC | -0.112
ATGGTACA | 0.0453
AGGGGTTG | -0.253
GAAGAAGC | -0.141
TGCGACAA | 0.125
CCGCCAGG | -0.0364
TCCTCCCA | -0.199
CAGTGAGC | -0.124
AGGAAGGG | -0.313
CGGCCGTA | -0.182
AATCTTGG | -0.0305
CTCTAGCA | -0.0969

Sequence | PBM E-score
AAAAAAAA | 0.172
ACTGTAGC | -0.0662
TAGACCCA | -0.129
AGGTACAC | 0.0905
CACCCACA | -0.0855
GATTATCC | -0.175
CCACGGGA | -0.0912
ATGGGTGA | -0.0715
CCGACACG | 0.0312
CTCTCTAC | 0.0221
CGGTCGCA | -0.208
GGGCACCA | -0.151
GTTCCACA | -0.077
CACGCCGA | -0.147
CCAACCAG | -0.174
ATACGTAA | 0.379
CGCAGGCA | -0.0697
CAAATGGG | -0.132
ACTATTAT | 0.0136
GGAGCCAC | -0.308
CCGCTGCG | -0.211
ACTGGTTC | 0.0585
ATCGAGCA | -0.0893
ATGGTCTC | 0.0169
AATAGATA | 0.0285

Sequence | PBM E-score
CTCGCGAG | -0.227
GTCACGTA | 0.271
AATGTTGT | 0.289
CGTCACGA | -0.117
CTCTCCCC | -0.387
GCTTTTCA | 0.00885
CGGCTACA | 0.0805
AGGCACTC | -0.19
AATCCGGG | -0.29
AGTAAGTA | 0.166
ACCCTGTC | -0.219
CGGTCCCA | -0.241
CCGGCGAA | -0.169
CCGCGTCC | 0.0285
AATGTAAT | 0.461
AGAACGCC | -0.0421
GATTAACC | -0.108
AATGCAAA | 0.123
GGCATGAA | -0.0459
ACACCCTG | 0.00619
AATTCTCG | 0.109
CCCCCGTC | -0.35
GGACGTCA | -0.0851
GGCATCTA | -0.0197
ATTCTTAG | -0.0672

Sequence | PBM E-score
ACAAACTA | 0.126
GCTACTCC | -0.37
CTGTAAAA | 0.359
ACAGTATA | 0.153
GATCTGGA | -0.178
AGCTCGAT | -0.165
GAAGCTAA | -0.0677
GCTATCAA | -0.0322
AGGTTATG | 0.0259
TGTCTCAA | -0.0917
GTCTACCA | -0.144
AACAAATC | 0.139
CGCGCGTA | 0.283
GTATTGAA | 0.216
CGGCGAAG | -0.341
TATACCAA | 0.128
AGTTCTCA | 0.0389
AAAAAATA | 0.0882
TCTGGCAA | -0.181
GAGGTCAA | -0.0488
GCGGTCCA | -0.16
AGCGTAGG | -0.16
ATCCAACC | -0.143
GAAGAGGC | -0.235
CGTCCGGC | -0.144

Sequence | PBM E-score
CCGGTTCA | -0.211
AAACCGGT | -0.0667
GGCGTGAC | -0.0919
GATGCCGA | -0.0884
AACATCCT | 0.0107
GCTGGAGA | -0.279
GCCGGGTA | -0.24
AGACGGCT | -0.177
GTATAACA | 0.378
ACACTTGC | 0.0919
GCTGAGAC | -0.0953
AGGCCTAT | 0.147
GCTAATGA | -0.185
CGAGCTAA | -0.0985
GATGCAAA | -0.223
CCTTAGAA | -0.0456
GTTCACAA | 0.252
CTTGATCC | -0.142
AAATGGTA | 0.117
AAAATGCC | -0.121
CTAGCATA | 0.00952
GATAACTA | 0.095
AAGGAGTC | -0.279
CTGAGCGC | -0.156
AACCCGTA | -0.12

Sequence | PBM E-score
ACTGATAC | 0.0372
CGGAAGGA | -0.0677
GCTCGCCC | -0.187
AAATCTGC | 0.00182
ATTGACAC | 0.354
ATGGTTCA | 0.0542
CAGATAGC | -0.275
GGCCGGGA | -0.237
TACGTCTA | 0.108
AGGTCGTC | -0.228
AAGTACTT | 0.133
AATCACAT | 0.183
CGACACAA | 0.204
GCTGCGAA | -0.0258
ACACAGCC | 0.317
GGTTCTTA | 0.0405
AGATCACT | -0.0166
CAGTTGAG | -0.135
GCCTCGGA | -0.294
GACTCTCA | -0.277
ACACACAT | 0.379
ACATAAGC | 0.24

— the supplement of paper PMC3334620
